Laboratory results: PubChem BioAssay (NCI)
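The compound was tested at five concentrations on cells cultured in 96-well plates, with a 48-hour exposure period. GI50 = concentration required for 50% inhibition of growth. The concentration for full growth arrest is given as TGI.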 Square brackets hold non-standard residues; d marks the D form. Peptide text beside a SMILES is read from it. * marks the point of attachment. ξ: configuration not given here. NMeN = CN[C@@H](CC(N)=O)C(=O)O; NMeV = CN[C@H](C(=O)O)C(C)C; ξNMeV = CNC(C(=O)O)C(C)C; Boc = CC(C)(C)OC(=O)*; ξNMeA = CNC(C)C(=O)O

These compounds were tested on NCI-H322M lung (assay: NCI-60 cell line screen, 48 h).
Work on `COC(=O)c1ccc(N=NN(C)COc2ccc([N+](=O)[O-])cc2)cc1` yielded a TGI greater than 100 µM.
`COc1cc(C2C3=C(COC3=O)Oc3cc4c(cc32)OCO4)ccc1OC(C)=O` (centres undefined) gave a TGI greater than 100 µM.
Work on `N#CC(Nc1ccccc1)c1ccc(C(C#N)Nc2ccccc2)cc1` (centres undefined) yielded a TGI greater than 100 µM.
Compound `Cc1ccc(S(=O)(=O)NC2C(=O)c3ccccc3C(=O)C2n2cnc3ccccc32)cc1` (centres undefined) has a TGI greater than 100 µM.
`CCCN1CN(C(C(=O)N[C@@H]2C(=O)N3C(C(=O)O)=C(C)CSC23)c2ccc(O)cc2)CSC1=S` (some centres undefined) gave a TGI greater than 100 µM.
With `O=c1oc2ccccc2nc1/C=C(\O)c1ccc([N+](=O)[O-])cc1` the TGI was greater than 100 µM.
Compound `COC(=O)C12C(=O)O[C@H](C)C1(O)C(C)C(=O)N2C` (some centres undefined) has a TGI greater than 100 µM.
`C[C@@H]1N=C(c2ccc(Br)cc2)Nc2nc3ccccn3c2C1=O` was tested, and the GI50 was 23.6 µM and the TGI was greater than 100 µM.
Compound `NC1=NN(c2ccccc2)C2(O)c3ccncc3C3=NN(c4ccccc4)C(=O)C132` (centres undefined) has a TGI greater than 100 µM.
With `CC(=O)N/C(=C\c1cccc([N+](=O)[O-])c1)c1nc2c3c(ccc2[nH]1)C(=O)c1ccccc1C3=O` the TGI was greater than 100 µM.
In the case of `C=C(Br)CN(C(C)=O)C1CCCCC1`, the TGI is reported as greater than 100 µM.
For `O=c1oc2ccccc2c(O)c1C(c1ccc(/C=C/c2ccccc2)cc1)c1c(O)c2ccccc2oc1=O`, the TGI was greater than 100 µM.
`Cc1ccc(C(=O)C(Cl)C(Cl)c2ccc(C)cc2)cc1` (centres undefined) showed a TGI of 27.1 µM.
`C=CCN1C=CC(=O)[C@H](O[Si](C)(C)C(C)(C)C)[C@@H]1/C=C/c1ccccc1` showed a GI50 of 15.3 µM and a TGI of 31.2 µM.
Work on `CN(C)CCCCN1c2ccccc2Sc2cc(N=[N+]=[N-])ccc21` yielded a TGI of 8.79 µM.
In the case of `COc1ccc(C(c2c[nH]c3ccc(Br)cc23)c2c[nH]c3ccc(Br)cc23)cc1`, the TGI is reported as 0.924 µM.
For `COC(=O)C(C)N(C)C(=O)[C@H](CC(N)=O)N(C)C(=O)[C@@H]1CCCN1C(=O)[C@H](C(C)C)N(C)C(=O)C(C(C)C)N(C)C(=O)[C@@H](NC(=O)OC(C)(C)C)C(C)C` (some centres undefined) (Boc-V[ξNMeV][NMeV]P[NMeN][ξNMeA]-OMe), the GI50 was greater than 100 µM and the TGI was greater than 100 µM.
`COc1ccc(-c2ccc(/C=N/n3c(COc4ccc(Cl)cc4Cl)nn(CN4CCN(C)CC4)c3=S)o2)c([N+](=O)[O-])c1` showed a GI50 of 14.3 µM and a TGI of 39.6 µM.
With `NC(=O)C(c1ccccc1)N1OC2C(=O)N(c3cccc4ccccc34)C(=O)C2C1c1c2ccccc2c(Cl)c2ccccc12` (centres undefined) the TGI was 39.7 µM.
`COc1ccc2cc(/C=N\NC(=O)Nc3cccc4ccccc34)ccc2c1` was tested, and the TGI was greater than 100 µM.
Work on `CN(C)C(=O)Nc1cc2c3c(c1)CCCN3CCC2` yielded a TGI greater than 10 µM.
Work on `Cc1cccc(Cl)c1NC(=O)/C=C/c1ccccc1` yielded a TGI greater than 100 µM.
Compound `O=C(c1cccs1)N(C(=S)N1CCN(c2ccccn2)CC1)C1CCCCC1` has a TGI greater than 100 µM.
For `NC(=S)N/N=C(\C(=O)Nc1cccc([N+](=O)[O-])c1)c1nc2ccc([N+](=O)[O-])cc2[nH]c1=O`, the TGI was greater than 100 µM.
Compound `O=C(c1ccco1)N(C(=S)N1CCN(c2ccccn2)CC1)C1CCCCC1` has a TGI greater than 100 µM.
Compound `O=C1NC2CCC(C2)C1c1ccccc1` (centres undefined) has a TGI greater than 100 µM.
For `C#C[C@]1(O)CCC2C3CCc4cc(Oc5nc(F)nc(-c6c7cc8ccccc8cc7c7n6CCS7)n5)ccc4C3CCC21C` (some centres undefined), the TGI was greater than 100 µM.
`N=C(N)c1csc([C@@H]2O[C@H](CO)[C@@H](O)[C@H]2O)n1` showed a TGI greater than 100 µM.
With `COC(=O)C12CC3CC(C1)CC(C(=O)OC)(C3)C2` the TGI was greater than 100 µM.
Work on `COc1cc(C2c3cc4c(cc3OC(Nc3ccccc3)C2C)OCO4)cc(OC)c1OC` (centres undefined) yielded a TGI greater than 27.3 µM.
In the case of `CCOC(=O)C1=C(Nc2ccc(Cl)cc2Cl)OC/C1=N\NS(=O)(=O)c1ccc(C)cc1`, the TGI is reported as greater than 100 µM.
Work on `CN1CCCCCC(=N\O)/C(=N/O)CCCCC1` yielded a TGI greater than 100 µM.
With `CCn1c(O)c(C=N)c(=O)n(CC)c1=O` the TGI was greater than 100 µM.
`O=c1c2cc([N+](=O)[O-])ccc2n2n1Cc1ccccc1C2` showed a TGI greater than 100 µM.
In the case of `COc1cc2cc(C(=O)Nc3cc(N)c4ccccc4c3CCCl)[nH]c2c(OC)c1OC`, the GI50 is reported as 0.124 µM and the TGI is reported as 3.68 µM.
Work on `c1ccc2c(c1)-c1ccccc1C2N1CC2CCC(CC2)C1` yielded a TGI of 99.1 µM.
With `Cc1cc2cc3c(C)cc(=O)oc3c(C)c2o1` the TGI was greater than 100 µM.
In the case of `CCOC(=O)c1c(-c2ccc(O)c(OC)c2)c(C#N)c(=S)n(C2OC(COC(C)=O)C(OC(C)=O)C(OC(C)=O)C2OC(C)=O)c1-c1ccccc1` (centres undefined), the TGI is reported as greater than 100 µM.
With `COC(=O)c1c2c(c(C)[n+]([O-])c1C)C(=O)C=C(NCc1ccc(OC)cc1)C2=O` the GI50 was 2.27 µM and the TGI was 7.08 µM.
`Cc1ccc(-c2nc(N)nc3c2nnn3Cc2cccc(CO[C@H]3CCOC3)n2)o1` was tested, and the GI50 was greater than 100 µM and the TGI was greater than 100 µM.
Work on `Cc1ccc(NC(=O)CCC/C(CC(=O)c2ccc(Br)cc2)=N/NC(=O)CC#N)cc1` yielded a TGI greater than 100 µM.
`O=[N+]([O-])c1ccc(Nc2nc3ccccc3s2)cc1` gave a TGI greater than 100 µM.
`COc1cccc2c(Nc3ccc(S(=O)(=O)NC(C)=O)cc3)c3ccc([N+](=O)[O-])cc3nc12` gave a TGI greater than 100 µM.
`CC1(C)CCCCCCC2OC2CCCCCC(C)(C)C1=O` (centres undefined) gave a TGI greater than 100 µM.
`CCOC(=O)/C(C#N)=C1\c2c([nH]c(=S)[nH]c2=O)Oc2ccc3ccccc3c21` was tested, and the TGI was greater than 100 µM.
`Cc1ccc(/C=C/C(=O)c2sc(-c3cccnc3)nc2C)cc1` gave a TGI greater than 100 µM.
`CC[O-].CC[O-].O=C1C(c2ccccc2)=C([O-])c2ccccc21.O=C1C(c2ccccc2)=C([O-])c2ccccc21.[Ti+4]` gave a GI50 greater than 100 µM and a TGI greater than 100 µM.
Work on `C[C@]12CC[C@H](OCCC#N)CC1=CC[C@@H]1C2CC[C@]2(C)/C(=N/OCCC#N)CCC12` (some centres undefined) yielded a TGI greater than 100 µM.
For `O=C1c2cc([N+](=O)[O-])ccc2-c2cccc(F)c21`, the TGI was greater than 100 µM.
`O=C1NC(=S)NC(=O)C1=Cc1cccc2cc3ccccc3cc12` showed a TGI of 10.8 µM.
For `Cc1occc1C(=S)Nc1ccc(Cl)c(/C=N/OC(C)C)c1`, the TGI was 57 µM.
